In this test the test system is MX-1 breast xenograft, nude mice, tumor weight T/C. The experiment in a line: NCI In Vivo Anticancer Drug Screen. Data for tumor model Human Mammary Carcinoma MX-1 Xenograft (intrarenal inoculation) in NU/NU Swiss (nude) mice. Particulars: endpoint: mean tumor weight change, higher = larger tumour. The protocol: The antitumor activity of compounds was measured in mice bearing transplantable tumors. Survival or tumor size were measured and the results are expressed as the measurement made in the treated group (T) divided by the measurement made in the vehicle treated control group (C). The tumor model used in this assay is Human Mammary Carcinoma MX-1 Xenograft (intrarenal inoculation) in NU/NU Swiss (nude) mice

The mark [1] stands for this setting: dose: 8.0 mg/kg/injection, schedule: Q01DX010 (sc), vehicle: water.
Where [2] appears, read: dose: 100.0 mg/kg/injection, schedule: Q04DX003 (sc), vehicle: Klucel (hydroxypropylcellulose) (HPC).
The mark [3] stands for this setting: dose: 300.0 mg/kg/injection, schedule: Q04DX003 (sc), vehicle: suspension in saline.
The mark [4] stands for this setting: dose: 400.0 mg/kg/injection, schedule: Q04DX003 (sc), vehicle: Klucel (hydroxypropylcellulose) (HPC).
The mark [5] stands for this setting: dose: 200.0 mg/kg/injection, schedule: Q01DX010 (sc), vehicle: Klucel (hydroxypropylcellulose) (HPC).
Setting [6] is: dose: 100.0 mg/kg/injection, schedule: Q01DX010 (sc), vehicle: saline with Tween-80.

Records with an inconclusive call do not appear. Certain results were filed several times, with different values. This list holds those alone. The source may hold further records. The values listed for one entry repeat one measurement in other runs, samples, wells, individuals or studies.

Consider `COc1cccc2c1C(=O)c1c(O)c3c(c(O)c1C2=O)C[C@@](O)(/C(C)=N/NC(=O)c1ccc(Cl)cc1)C[C@@H]3OC1CC(N)C(O)C(C)O1` (stereo partly drawn), for which the T/C is 70 % of control and 101 % of control (dose: 2.0 mg/kg/injection, schedule: Q01DX010 (sc), vehicle: water); 63 % of control and 101 % of control under setting [1].

Turning to `CC[C@](C)(O)C(=O)O[C@H]1C(=O)O[C@@H]2C[C@H]3C(C)=CC(=O)[C@@H](O)[C@]3(C)[C@H]3[C@@]4(O)OC[C@]32[C@@H]1[C@@H](C)[C@H]4O`, the T/C (dose: 0.25 mg/kg/injection, schedule: Q01DX010 (sc), vehicle: Klucel (hydroxypropylcellulose) (HPC)) was 120 % of control, 122 % of control, 166 % of control; the T/C (dose: 0.5 mg/kg/injection, schedule: Q01DX010 (sc), vehicle: Klucel (hydroxypropylcellulose) (HPC)) is reported as 52 % of control, 82 % of control, 120 % of control; the T/C (dose: 1.0 mg/kg/injection, schedule: Q01DX010 (sc), vehicle: Klucel (hydroxypropylcellulose) (HPC)) was 13 % of control and 74 % of control.

With `CN(C)C=O`, the T/C runs as follows: (dose: 400.0 mg/kg/injection, schedule: Q01DX010 (sc), vehicle: saline) 18 % of control, 32 % of control, 49 % of control; (dose: 3200.0 mg/kg/injection, schedule: Q01DX010 (sc), vehicle: saline) 1 % of control, 8 % of control, 35 % of control.

As to `O=NN(CCCl)C(=O)NC1CCCCC1`, the T/C is 50 % of control and 251 % of control (dose: 8.0 mg/kg/injection, schedule: Q01DX010 (sc), vehicle: saline with Tween-80); 19 % of control and 63 % of control (dose: 16.0 mg/kg/injection, schedule: Q04DX003 (sc), vehicle: Klucel (hydroxypropylcellulose) (HPC)); -8 % of control and 39 % of control (dose: 32.0 mg/kg/injection, schedule: Q01DX010 (sc), vehicle: saline with Tween-80); -34 % of control and 30 % of control (dose: 32.0 mg/kg/injection, schedule: Q04DX003 (sc), vehicle: Klucel (hydroxypropylcellulose) (HPC)); 26 % of control and 224 % of control (dose: 50.0 mg/kg/injection, schedule: Q04DX003 (sc), vehicle: Klucel (hydroxypropylcellulose) (HPC)); -85 % of control and 124 % of control under setting [2].

Consider `COc1cc2cc3cc4cc(OC)c(OC)cc4c(C)[n+]3cc2cc1OC` (tested in a mixture with another compound), for which the T/C was 69 % of control and 119 % of control under setting [3]; 76 % of control and 110 % of control (dose: 600.0 mg/kg/injection, schedule: Q04DX003 (sc), vehicle: suspension in saline).

For `CO[C@H]1Nc2c(ccc(C)c2O)C(=O)N2C=C(/C=C/C(N)=O)C[C@@H]12`, the T/C (dose: 0.25 mg/kg/injection, schedule: Q04DX003 (sc), vehicle: saline + alcohol) was 19 % of control and 100 % of control; the T/C (dose: 1.0 mg/kg/injection, schedule: Q04DX003 (sc), vehicle: saline + alcohol) is -65 % of control and 9 % of control.

As to `CNC(=O)OCc1c(COC(=O)NC)c(C)n(-c2ccc(OC)cc2)c1C`, the T/C by setting is: (dose: 200.0 mg/kg/injection, schedule: Q04DX003 (sc), vehicle: Klucel (hydroxypropylcellulose) (HPC)) -32 % of control and 37 % of control; under setting [4], -99 % of control and 1 % of control.

As to `O=C1c2ccccc2C(=O)c2c(NCCNCCO)ccc(NCCNCCO)c21`, the T/C was 36 % of control, 60 % of control, 74 % of control (dose: 4.0 mg/kg/injection, schedule: Q01DX010 (sc), vehicle: water); 12 % of control and 58 % of control under setting [1].

For the molecule `CC1CN1C(=O)NCCCCCCNC(=O)N1CC1C` (stereo not drawn), the T/C (dose: 10.0 mg/kg/injection, schedule: Q04DX003 (sc), vehicle: Klucel (hydroxypropylcellulose) (HPC)) is listed as 8 % of control, 17 % of control, 65 % of control and the T/C (dose: 20.0 mg/kg/injection, schedule: Q04DX003 (sc), vehicle: Klucel (hydroxypropylcellulose) (HPC)) is -64 % of control, 5 % of control, 11 % of control.

Take `c1cc2n(n1)CCN2`: the T/C reads like this: (dose: 100.0 mg/kg/injection, schedule: Q01DX010 (sc), vehicle: saline) 18 % of control and 75 % of control; (dose: 200.0 mg/kg/injection, schedule: Q01DX010 (sc), vehicle: saline) 52 % of control and 86 % of control.

For `CNC(=O)ON(C(C)=O)C(=O)NC`, the T/C (dose: 25.0 mg/kg/injection, schedule: Q01DX010 (sc), vehicle: water) was 35 % of control and 78 % of control; the T/C (dose: 25.0 mg/kg/injection, schedule: Q04DX003 (sc), vehicle: saline) was 102 % of control and 157 % of control; the T/C (dose: 50.0 mg/kg/injection, schedule: Q01DX010 (sc), vehicle: water) is 7 % of control and 118 % of control; the T/C (dose: 100.0 mg/kg/injection, schedule: Q04DX003 (sc), vehicle: saline) is 41 % of control and 77 % of control.

In the case of `COC1C(/C=C/C(C)=O)OC2OC(C)(C)OC21` (stereo not drawn), under setting [3], the T/C was 78 % of control and 154 % of control.

In the case of `COc1cccc2c1C(=O)c1c(O)c3c(c(O)c1C2=O)CC(O)(/C(C)=N/NC(=O)CCCCC(=O)N/N=C(\C)C1(O)Cc2c(O)c4c(c(O)c2C(OC2CC(N)C(O)C(C)O2)C1)C(=O)c1c(OC)cccc1C4=O)CC3OC1CC(N)C(O)C(C)O1` (stereo not drawn), the T/C is 50 % of control and 84 % of control (dose: 12.5 mg/kg/injection, schedule: Q04DX003 (sc), vehicle: water); 9 % of control and 99 % of control (dose: 25.0 mg/kg/injection, schedule: Q04DX003 (sc), vehicle: water).

Take `O=[N+]([O-])/C=C\c1ccc2c(c1)OCO2`: under setting [5], the T/C was 102 % of control and 170 % of control.

In the case of `COc1ccc(S(=O)(=O)N/N=C/C(=O)O)cc1`, the T/C by setting is: (dose: 25.0 mg/kg/injection, schedule: Q01DX010 (sc), vehicle: saline with Tween-80) 56 % of control, 84 % of control, 113 % of control; (dose: 50.0 mg/kg/injection, schedule: Q01DX010 (sc), vehicle: saline with Tween-80) 35 % of control, 37 % of control, 64 % of control; under setting [6], -16 % of control, 2 % of control, 22 % of control.

Turning to `CC(C)[NH-].CC(C)[NH-].O.O.[Cl][Pt+2][Cl]`, the T/C (dose: 12.5 mg/kg/injection, schedule: Q01DX010 (sc), vehicle: dextrose) is -79 % of control and -10 % of control.

For the molecule `CN1CCN(c2ccc3nc(-c4ccc5nc(-c6ccc(O)cc6)[nH]c5c4)[nH]c3c2)CC1`, the T/C is 75 % of control and 171 % of control (dose: 500.0 mg/kg/injection, schedule: Q04DX003 (sc), vehicle: suspension in saline); 14 % of control and 67 % of control (dose: 800.0 mg/kg/injection, schedule: Q04DX003 (sc), vehicle: saline).

`CC(=O)OCC1OC(n2cc(CBr)nn2)C(OC(C)=O)C(OC(C)=O)C1OC(C)=O` (stereo not drawn): under setting [6], the T/C was 17 % of control and 104 % of control.

For the molecule `C[N+](C)(C)c1cc2c(nn1)Nc1ccccc1S2`, the T/C (dose: 25.0 mg/kg/injection, schedule: Q01DX010 (sc), vehicle: Klucel (hydroxypropylcellulose) (HPC)) is 76 % of control and 253 % of control.

As to `O=c1[nH]c(=O)c2nc(-c3cccnc3)cnc2[nH]1`, the T/C by setting is: under setting [2], 8 % of control and 81 % of control; under setting [4], 21 % of control and 112 % of control; (dose: 800.0 mg/kg/injection, schedule: Q04DX003 (sc), vehicle: Klucel (hydroxypropylcellulose) (HPC)) 65 % of control and 106 % of control.

Take `CC(=O)O[C@H]1C(=O)[C@@]2(C)[C@H]([C@H](OC(=O)c3ccccc3)[C@]3(O)C[C@H](OC(=O)[C@H](O)[C@@H](NC(=O)c4ccccc4)c4ccccc4)C(C)=C1C3(C)C)[C@]1(OC(C)=O)CO[C@@H]1C[C@@H]2O`: the T/C is, setting by setting: (dose: 50.0 mg/kg/injection, schedule: Q01DX010 (sc), vehicle: Klucel (hydroxypropylcellulose) (HPC)) -15 % of control, 7 % of control, 34 % of control; (dose: 100.0 mg/kg/injection, schedule: Q01DX010 (sc), vehicle: Klucel (hydroxypropylcellulose) (HPC)) -77 % of control, 3 % of control, 21 % of control; under setting [5], -67 % of control and 27 % of control.

Regarding `CCC1(O)CC2CN(CCc3c([nH]c4ccccc34)C(C(=O)OC)(c3cc4c(cc3OC)N(C)C3C(O)(C(N)=O)C(O)C5(CC)C=CCN6CCC43C65)C2)C1` (stereo not drawn) (tested in a mixture with another compound), under “dose: 3.0 mg/kg/injection, schedule: Q04DX003 (sc), vehicle: water”, the T/C is -100 % of control, -6 % of control, -1 % of control.

Values taken from PubChem BioAssay AID296 (DTP/NCI, 2004).
